PMC4336329 (PLoS ONE, 2015)
In all, about 310,000 compounds went through this assay and about 2,200 (0.71%) showed an effect of 50% or more. Effects have a minus sign here. Some of the results follow.

target: human ether-à-go-go-related gene (hERG) potassium channel (human, UniProt Q12809); assay: primary screen, population patch clamp on CHO cells stably expressing hERG
Sequence (Q12809 whole entry, looked up): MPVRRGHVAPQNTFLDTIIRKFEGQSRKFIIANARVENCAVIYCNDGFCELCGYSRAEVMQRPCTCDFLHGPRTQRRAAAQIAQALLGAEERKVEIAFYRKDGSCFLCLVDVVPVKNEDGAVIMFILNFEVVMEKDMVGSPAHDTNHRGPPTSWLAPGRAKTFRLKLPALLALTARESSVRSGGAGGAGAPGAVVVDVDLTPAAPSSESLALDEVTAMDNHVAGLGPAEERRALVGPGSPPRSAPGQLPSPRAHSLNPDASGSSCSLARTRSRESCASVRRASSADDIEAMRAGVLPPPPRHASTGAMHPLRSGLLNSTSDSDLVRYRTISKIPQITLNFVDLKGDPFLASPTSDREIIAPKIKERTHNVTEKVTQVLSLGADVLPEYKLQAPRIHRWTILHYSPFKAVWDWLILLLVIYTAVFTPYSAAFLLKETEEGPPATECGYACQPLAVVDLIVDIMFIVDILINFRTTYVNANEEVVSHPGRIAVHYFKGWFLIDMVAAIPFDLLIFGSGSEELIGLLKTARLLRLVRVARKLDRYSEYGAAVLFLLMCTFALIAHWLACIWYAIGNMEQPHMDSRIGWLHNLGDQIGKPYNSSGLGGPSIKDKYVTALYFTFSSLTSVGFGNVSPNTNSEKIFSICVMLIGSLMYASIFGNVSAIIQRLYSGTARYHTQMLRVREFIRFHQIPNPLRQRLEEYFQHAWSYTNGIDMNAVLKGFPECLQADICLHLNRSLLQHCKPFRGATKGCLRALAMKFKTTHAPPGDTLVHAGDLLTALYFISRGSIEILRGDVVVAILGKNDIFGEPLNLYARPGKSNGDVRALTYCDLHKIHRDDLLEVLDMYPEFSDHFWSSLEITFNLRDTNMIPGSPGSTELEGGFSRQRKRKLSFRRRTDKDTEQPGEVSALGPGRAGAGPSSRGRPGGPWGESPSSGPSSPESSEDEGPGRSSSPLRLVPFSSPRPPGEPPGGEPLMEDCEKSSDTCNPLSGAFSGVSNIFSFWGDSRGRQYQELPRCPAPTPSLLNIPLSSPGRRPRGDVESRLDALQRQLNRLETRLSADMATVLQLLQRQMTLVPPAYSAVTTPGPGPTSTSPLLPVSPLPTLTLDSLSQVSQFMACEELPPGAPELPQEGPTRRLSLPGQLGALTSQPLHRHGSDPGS

| SMILES | hERG current change (%, negative = inhibition) at 1uM |
| --- | --- |
| O=c1[nH]c(CSc2nnc(-c3ccccc3)n2-c2ccccc2)nc2ccccc12 | 12% |
| NC(=O)c1ccsc1NC(=O)COC(=O)Cc1c[nH]c2ccccc12 | 8.82% |
| O=C(NC(CC(=O)N1CCCC(C(F)(F)F)C1)c1ccccc1)c1ccccc1Cl (stereo not drawn) | 8.72% |
| O=Cc1cn(Cc2ccc([N+](=O)[O-])cc2)c2ccccc12 | 5.49% |
| CC(=O)NC(Cc1ccccc1F)C(=O)NC1CCN(C(=O)c2cnccn2)CC1 (stereo not drawn) | 0.513% |
| CCCN(CCC)CCCNC(=O)CCNS(=O)(=O)c1ccc(Br)cc1 | 0.507% |
| CCOC(=O)c1sc(NC(=O)c2ccc(OC(C)=O)cc2)nc1C | 3.02% |
| CC(Sc1nnnn1C)C(=O)Nc1ccc2c(c1)OCCO2 (stereo not drawn) | -4.01% |
| CCC1(C)Cc2ccccc2C(=S)N1 (stereo not drawn) | 12% |
| Cc1ccc(NC(=O)N2CCCC2C(=O)NCc2ccc3c(c2)OCO3)cc1 (stereo not drawn) | 9.11% |
| COc1ccc(N=C2C(=O)Nc3c(C)cccc32)cc1 | 8.86% |
| COc1ccc(N(C)C(=O)c2cc3c(s2)-c2ccc(Cl)cc2S(=O)(=O)C3)c(OC)c1 | -7.04% |
| CC1=Nc2ccccc2/C1=C/c1sc(=O)n(CC(=O)N2CCCC2)c1O | 10.3% |
| COc1ccc(N2CC(C(=O)Nc3ccc(S(=O)(=O)N4CCOCC4)cc3)CC2=O)cc1 (stereo not drawn) | 11.9% |
| COc1ccccc1CNC(=O)CN(c1cccc([N+](=O)[O-])c1)S(C)(=O)=O | 7.52% |
| O=C(NCCS(=O)(=O)N1CCN(c2ccc(F)cc2)CC1)C1CC(=O)N(c2ccccc2)C1 (stereo not drawn) | 3.21% |
| CCOC(=O)CNC(=O)CCCCCC(=O)NCC(=O)OCC | 14.6% |
| COc1ccc(C2C3C(=O)N(Cc4ccccc4)C(=O)C3ON2c2ccccc2)c(OC)c1OC (stereo not drawn) | 11.2% |
| Cc1cc(NC(=O)c2cc(-c3cccs3)on2)no1 | 1.68% |

| SMILES | hERG current change (%, negative = inhibition) at 1uM |
| --- | --- |
| Cc1cnc(NC(=O)c2c(Cl)cnn2C)s1 | 11.2% |
| COc1ccccc1C(=O)CSc1cccc[n+]1[O-] | 8.11% |
| O=C(NCSC1=NCCS1)c1ccccc1 | 7.18% |
| COc1ccccc1CNC(=O)C1Cc2cc(S(=O)(=O)N3CCCC3)ccc2N1C(C)=O (stereo not drawn) | 19% |
| O=C(COc1ccccc1)NCCSc1ccccc1 | 2.66% |
| Cc1nc(Oc2ccccc2)c2oc3ccccc3c2n1 | 12.7% |
| COc1ccc(C2=NS(=O)(=O)N(C)C(C(=O)NC(C)c3ccccc3)=C2)cc1 (stereo not drawn) | -1.25% |
| O=C(Cc1c[nH]c2ccccc12)NCc1ccc2c(c1)OCO2 | 20% |
| COc1ccc(C(=O)Nn2c(SCC(=O)c3ccccc3)nc3ccccc3c2=O)cc1 | -14.8% |
| CCN(CC)CCNC(=O)c1ccc(Cl)c(S(=O)(=O)N2CCCCCC2)c1.Cl | -52.2% |
| CC(C)NC(=O)C(=O)Nc1cc2c3c(c1)CCC(=O)N3CCC2 | 11.5% |
| CN(c1ccc(OCC(=O)OCC(=O)Nc2cccc([N+](=O)[O-])c2)cc1)S(=O)(=O)c1ccc(F)cc1 | 9.84% |
| CC(C)=CC(=O)OCC(=O)Nc1ccc(F)cc1Cl | 5.58% |
| O=C(COc1ccc(/C=N/NC(=O)CSCc2ccc([N+](=O)[O-])cc2)cc1)NCc1ccco1 | -4.2% |
| Cc1cccc(NC(=O)c2ccc(OCc3c(C)noc3C)cc2)c1 | 16.9% |
| COc1ccc(/C=C/CN2CCN(CC(C)C)C(CCO)C2)cc1 (stereo not drawn) | -0.433% |
| CCC1(CC)NC(=O)N(CC(=O)OCC(=O)NC(=O)c2ccc(Cl)cc2)C1=O | 7.69% |
| COc1ccc(/C=N/NC(=O)c2cccc([N+](=O)[O-])c2)c2ccccc12 | 2.39% |
| Cc1c(Br)c(-c2n[nH]c(=S)n2Cc2ccco2)nn1C | 8.41% |

| SMILES | hERG current change (%, negative = inhibition) at 1uM |
| --- | --- |
| CCc1noc(N)c1C(=O)Nc1ccc(F)c(Cl)c1 | 10.9% |
| O=C(NC(=S)Nc1ccc(CN2CCOCC2)cc1)c1ccc(-c2cccc(Cl)c2)o1 | 7.67% |
| O=C(NCCc1ccncc1)C(F)(F)F | 19.3% |
| COC(=O)c1cc(-c2ccc(OC)cc2F)nc2nc(SC)[nH]c(=O)c12 | 17.1% |
| COc1ccc(C(=O)NCCc2nnc3ccc(SCC(=O)N4CCCCC4)nn23)cc1 | 10.9% |
| Cc1c(C(=O)N2CCCCC2)sc(NC(=O)C2CC2)c1C#N | 9.9% |
| CCCSc1nnc(NC(=O)CSc2nc3[nH]c(=O)cc(O)c3s2)s1 | 14.8% |
| O=C(CCSCCC(=O)NCc1cccs1)NCc1cccs1 | 11.4% |
| Cc1csc(NC(=O)CSc2nnc(C)c(=O)n2N)n1 | 1.29% |
| COC(=O)c1ccc(N2C(=O)CC(SCC(=O)Nc3ccc(OC)cc3)C2=O)cc1 (stereo not drawn) | 2.09% |
| CC1CCN(S(=O)(=O)c2ccc(F)c(C(=O)O)c2)CC1 | 4.2% |
| O=C(CSc1nnc(Nc2ccccc2)s1)NN1C(=O)NC2(CCCCC2)C1=O | 6.02% |
| CC1CN(c2ccc([N+](=O)[O-])c(NCCOc3ccc(Cl)cc3)c2)CC(C)N1 (stereo not drawn) | 3.04% |
| Cc1cc(C)n(Cc2ccccc2)c(=O)c1S(=O)(=O)c1ccccc1 | 3.34% |
| CC(=O)N1CCN(C(=O)c2ccc(-n3c(C)ccc3C)cc2)CC1 | 1.49% |
| O=C(COC(=O)c1ccc(Cl)nc1)Nc1ncc(Cl)cc1Cl | 15.8% |
| O=C(COC(=O)c1n[nH]c(=O)c2ccccc12)NC1CCCCC1 | 8.64% |
| Cl.O=C(CCCN1CCOC(c2ccccc2)C1)c1ccc(F)cc1 (stereo not drawn) | -45.7% |
| O=C(CSc1ncn[nH]1)NNC(=O)c1ccccc1 | -2.53% |
